Structures can show the parent of a compound that is named as a salt. ± gives the standard deviation of the averaged measurements. In all, about 1,900 compounds were measured (“normalised cell viability (NPI; 0 = phenylarsine oxide control, 1 = DMSO control)”: median about 1, lowest 2% from about 0.039 on). This is one part of the list.
Test system: NCI-H1944
Assay: normalised cell viability (NPI; 0 = phenylarsine oxide control, 1 = DMSO control) (fraction of DMSO control); NCI-H1944 is a non-small cell lung cancer line; higher = more viable cells (less compound toxicity)
Conditions: 6 days
[1] = glucocorticoid arm: hydrocortisone 2.75 uM co-treatment, compound 1 µM
[2] = glucocorticoid arm: hydrocortisone 2.75 uM co-treatment, compound 5 µM
[3] = glucocorticoid arm: hydrocortisone 2.75 uM pre-treated 2 days and continued, compound 1 µM
[4] = glucocorticoid arm: hydrocortisone 2.75 uM pre-treated 2 days and continued, compound 5 µM
[5] = glucocorticoid arm: vehicle, compound 1 µM
[6] = glucocorticoid arm: vehicle, compound 5 µM
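Further: CTB read-out in 384-well plates, mean of triplicate wells, normalised per plate against 1 µM phenylarsine oxide and 0.1% DMSO, compounds added 24 h after seeding.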

Structure (SMILES) | normalised cell viability [1] | normalised cell viability [2] | normalised cell viability [3] | normalised cell viability [4] | normalised cell viability [5] | normalised cell viability [6]
O=Nc1ccc2oc(=O)ccc2c1 [6-Nitroso-1,2-benzopyrone] | 1.02 ± 0.01 | 1.02 ± 0.015 | 1.027 ± 0.0058 | 0.857 ± 0.29 | 1.013 ± 0.0058 | 1.02 ± 0.01
CC(=O)c1c(C)c2cnc(Nc3ccc(N4CCNCC4)cn3)nc2n(C2CCCC2)c1=O | 0.8953 ± 0.0011 | 0.765 ± 0.022 | 0.9397 ± 0.0075 | 0.895 ± 0.014 | 0.9427 ± 0.004 | 0.798 ± 0.029
CC(C)OC(=O)C(C)(C)Oc1ccc(C(=O)c2ccc(Cl)cc2)cc1 [Fenofibrate] | 1 ± 0.015 | 1.005 ± 0.0092 | 1.01 ± 0.013 | 1.005 ± 0.0092 | 0.995 ± 0.0046 | 1.001 ± 0.0085
Cc1cc2c(s1)Nc1ccccc1N=C2N1CCN(C)CC1 [Olanzapine] | 1.02 | 1.02 ± 0.022 | 1.03 ± 0.011 | 1.03 ± 0.025 | 1.003 ± 0.0061 | 0.998 ± 0.013
CN1C(=O)C(Cc2c[nH]c3ccccc23)NC1=S (stereo not given) [Necrostatin-1] | 1.03 ± 0.01 | 1.11 ± 0.025 | 1.03 ± 0.011 | 1.08 ± 0.011 | 1.01 ± 0.011 | 1.02 ± 0.017
CCn1c(-c2nonc2N)nc2c(C#CC(C)(C)O)ncc(OC[C@H]3CCCNC3)c21 | 0.899 ± 0.012 | 0.726 ± 0.061 | 0.836 ± 0.014 | 0.757 ± 0.025 | 0.9827 ± 0.007 | 0.949 ± 0.015
NC(=O)CC[C@H](N)C(=O)O [L-Glutamine] | 1.007 ± 0.0058 | 1.01 ± 0.015 | 1.013 ± 0.0058 | 1.01 ± 0.01 | 1.013 ± 0.0058 | 1.01
CCCn1c(=O)c2[nH]c(C3CCCC3)nc2n(CCC)c1=O [8-Cyclopentyl-1,3-dipropylxanthine] | 1.01 ± 0.01 | 1.03 ± 0.015 | 1.01 ± 0.011 | 1.03 ± 0.011 | 0.9947 ± 0.0029 | 0.999 ± 0.0017
O=C(CCNNC(=O)c1ccncc1)NCc1ccccc1 [Nialamide] | 1.007 ± 0.0058 | 1.01 ± 0.027 | 1.01 ± 0.018 | 1.06 ± 0.061 | 1.005 ± 0.0081 | 1.01 ± 0.015
N/C(=N\C(=O)c1nc(Cl)c(N)nc1N)NCc1ccccc1 [Benzamil hydrochloride] | 1.023 ± 0.0058 | 1.04 ± 0.01 | 1.03 ± 0.011 | 1.05 ± 0.028 | 0.9897 ± 0.0045 | 1.02 ± 0.016
CCC(=O)c1ccc2c(c1)N(CCCN(C)C)c1ccccc1S2 [Propionylpromazine hydrochloride] | 0.975 ± 0.014 | 0.951 ± 0.011 | 1.01 ± 0.027 | 1 ± 0.016 | 0.9983 ± 0.0021 | 0.987 ± 0.013
Cc1nc2ccccn2c(=O)c1CCN1CCC(C(=O)c2ccc(F)cc2)CC1 [Pirenperone] | 0.9957 ± 0.0075 | 0.983 ± 0.034 | 0.996 ± 0.025 | 1.033 ± 0.0058 | 1.02 ± 0.01 | 1.03 ± 0.026
Nc1ccc(-c2ccc3ncc4ccc(=O)n(-c5cccc(C(F)(F)F)c5)c4c3c2)cn1 [Torin 2] | 0.175 ± 0.0021 | 0.171 ± 0.0032 | 0.267 ± 0.012 | 0.299 ± 0.0097 | 0.0254 ± 0.002 | 0.0207 ± 0.0023
Nc1nc(N)c(N=O)c(OCC2CCCCC2)n1 | 1.02 ± 0.011 | 1.05 ± 0.017 | 1.037 ± 0.0058 | 1.023 ± 0.0058 | 1 | 0.978 ± 0.019
NC(=O)c1cnccn1 [Pyrazinecarboxamide] | 0.9917 ± 0.008 | 1.01 ± 0.013 | 0.997 ± 0.029 | 0.995 ± 0.017 | 0.987 ± 0.006 | 0.978 ± 0.013

From the supplement of paper PMC8285479
